PubChem BioAssay AID1963576 (National Center for Advancing Translational Sciences (NCATS), 2024)
Out of some 46,000 compounds screened, about 60 (0.1%) were called active. Roughly 3% stayed inconclusive and do not appear here. Calls follow the shape of the dose curve; as a rule, active = well fitted inhibition curve with a large enough effect; inconclusive = small, poorly fitted or top-dose-only effect; inactive = no such curve, though single readings can be large or run the other way. This is one part of the list.

Assay: Primary qHTS assay for Inhibitors of ovarian cancer metastasis using an organotypic tumor microenvironment (TME) model. Also: nearly all actives have a fitted effect of over 65% in size.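 As to activity change, negative = inhibition: plate controls were DMSO wells for no effect and tomatine positive control wells for full effect.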
Settings: SKOV3ip1-GFP adhesion/invasion on 3D omental model, fluorescence; series mostly up to 45.8 µM; activity change, negative = inhibition: at the top concentration
How it was run: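 Adhesion/invasion was scored as fixed GFP-labeled SKOV3ip1 cell counts (488/509 nm), normalized to DMSO and tomatine controls. Cancer cells in serum-free medium, with four compound doses (0.36-46 umol/L), sat 2 hr at RT then 16 hr at 37 C on a 48 hr fibroblast/mesothelial/ECM culture.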

Activity change, negative = inhibition, inactive:
COc1ccc(NC(=O)CCCSc2nc(-c3ccco3)cc(C(F)(F)F)n2)cc1 2.95%
COc1ccccc1C(=O)Nc1c(C(=O)N2CCN(c3ccccc3F)CC2)oc2ccccc12 27.6%
Cc1nc2ccc(S(=O)(=O)CCC(=O)Nc3ccc(C(C)C)cc3)cc2s1 -9.59%
CCC1CCCCN1CCCNC(=O)c1cn(CC)c2ccc(S(=O)(=O)N(C)C3CCCCC3)cc2c1=O (centres undefined) 46.8%
CC(C)(C)c1ccc(C(=O)Nc2ccc(C(=O)OCc3cc(=O)n4ccsc4n3)cc2)cc1 -8.87%
Cc1ccc(CNC(=O)C2(c3cccs3)CCOCC2)cc1 3.45%
COc1ccc(-c2cn3c(n2)sc2cc(C(=O)Nc4c(C)cccc4C)ccc23)cc1 -1.63%
Cc1cc(C)cc(Nc2nc3ccccc3nc2-n2nc(C)cc2C)c1 4.71%
COC(=O)c1sc(-c2ccccc2)cc1NC(=O)Nc1ccccc1Cl -20.9%
CCc1ccc(NC(=O)c2cc3c(COC(C)=O)cnc(C)c3oc2=O)cc1 1.11%
CCOc1ccc(NC(=O)CSc2ncnc3c2sc2ccccc23)cc1 -7.01%
CCCCC(=O)Nc1cc(-c2nc3cccnc3s2)ccc1C 0.621%
CCc1ccc(NC(=O)CSc2nc(C)c(C(=O)Nc3ccc(Cl)cc3)c(-c3ccc(OC)cc3)c2C#N)cc1 0.401%
Cn1c(=O)oc2cc(S(=O)(=O)N3CCCC(C(=O)NCc4ccccc4Cl)C3)ccc21 (centres undefined) -7.08%
COc1ccc(NC(=O)Cn2c(=O)oc3cc(Cl)ccc32)c(OC)c1 -4.98%
CNC(=O)C1CCC(Cn2c(=O)c3sccc3n(CC(=O)NCc3ccc(C)cc3)c2=O)CC1 (centres undefined) 0.487%
O=C(CSc1nc2c([nH]c3ccccc32)c(=O)n1-c1ccccc1)N1CCCc2ccccc21 4.61%
O=C(CSc1nc2c([nH]c3ccccc32)c(=O)n1-c1ccc(F)cc1)NCC1CCCO1 (centres undefined) -0.621%
Cc1ccccc1C(=O)Nc1sc2c(c1C(=O)O)CCC(C(C)(C)C)C2 (centres undefined) -6.31%
O=C(NCc1ccc(Cl)cc1)c1cc2ccc3cccnc3c2[nH]1 -7.7%
CC(C)c1ccc(Cc2cn3cc(-c4cc5ccccc5oc4=O)nc3s2)cc1 -25.6%
Cc1ccc(NC(=O)NCCOCCn2c(=O)oc3ccccc32)c(C)c1 2.46%
Cc1nc(N2CCCC2)ncc1C(=O)NCc1ccc(Cl)cc1 6.85%
CC1=C(c2ccc(F)cc2)S(=O)(=O)N=C1N1CCC(C(=O)NCCc2ccccc2)CC1 -4.14%
COc1cccc(C(=O)c2cn(CC(=O)Nc3cc(Cl)c(OC)cc3OC)c3nc(C)ccc3c2=O)c1 -3.18%
COc1ccc(NC(=O)Cn2nc3c(cc2=O)CCCC3)cc1Cl -9.23%
Cc1cccc(NC(=O)c2cc(CN3CCOCC3)on2)c1C 7.12%
Cc1cccc(C)c1NC(=O)NCCCN1CCN(c2ccccc2)CC1 -2.06%
CC(C)(C)c1ccc(C(=O)NNc2ncnc3c2cnn3-c2ccc(Cl)cc2)cc1 8.11%
COc1cc(CN(C(=O)COc2ccc(Cl)cc2)c2ccccn2)cc(OC)c1OC -1.71%
COc1ccc(OC)c(C2=NS(=O)(=O)N(C)C(C(=O)Nc3ccc(C(C)=O)cc3)=C2)c1 -0.897%
CCOc1ccc(NC(=O)Cn2cc(S(=O)(=O)c3ccc(C)cc3)c(=O)c3cc(F)ccc32)cc1 -3.29%
CC(=O)c1nn(-c2ccc(OC(F)(F)F)cc2)nc1Nc1ccc(Cl)cc1 6.27%
CCc1ccc2occ(CC(=O)Nc3nnc(C)s3)c2c1 0.551%
O=C(CSc1nc2c([nH]c3ccccc32)c(=O)n1-c1ccccc1)NCc1ccc(F)cc1 6.16%
CCc1ccccc1NC(=O)CC(C)S(=O)(=O)c1ccc2c(c1)NC(=O)CO2 (centres undefined) 0.175%
COc1ccc(C(=O)c2cnc3ccc(C)cc3c2S(=O)(=O)c2ccccc2)cc1 -5.14%
COc1ccc(S(=O)(=O)N2CCC(C(=O)NC(C)c3ccccc3)CC2)cc1 (centres undefined) 1.85%
O=C(Nc1ccc(Br)cc1)c1cc2nc(-c3ccccc3)cc(-c3ccccc3)n2n1 3.87%
COc1ccc2[nH]cc(CCN=C(NC(=O)c3cccc(Cl)c3)Nc3nc(C)cc(C)n3)c2c1 7.42%
CCOc1ccc(-c2nnc(SCC(=O)NCc3ccc(Cl)cc3)o2)cc1 -2.02%
CC(O)=C(C#N)C(=O)Nc1ccc(C(F)(F)F)cc1 3.12%
COc1ccc(C(=O)N2CCC(c3nc4ccccc4s3)CC2)cc1Cl -11.8%
Cc1cc(NC(=O)Nc2nnc(N(C)C3CCCCC3)s2)ccc1Br 5.36%
CCc1ccc(NCc2cc3cc4c(cc3n(CC(=O)Nc3ccccc3OC)c2=O)OCCO4)cc1 -1.89%
Cc1cc(=O)c2cc(C(=O)Nc3ccc(C)c(C)c3)ccc2[nH]1 12.3%
COc1ccccc1NC(=O)CSc1nnc(NC(=O)NC2CCCCC2)s1 3.45%
COc1ccccc1/C=C/c1nc(C#N)c(N2CCN(C)CC2)o1 1.27%
Cc1nn(-c2ccccc2)c2c1cc1c(=O)[nH]c(=O)nc-1n2-c1cccc(Cl)c1 17.8%
COc1cc(Cl)c(C)cc1NC(=O)CSc1nc2c(c(=O)[nH]1)CCC2 -0.955%
CCC(Sc1nc2ccncc2[nH]1)C(=O)Nc1cc(Cl)ccc1C (centres undefined) -5.3%
Cc1cccc(NC(=O)Cn2ncc3c4ccccc4n(Cc4ccccc4)c3c2=O)c1C 3.88%
CCc1c2c(nc3ccc(O)cc13)-c1cc3c(c(=O)n1C2)COC(=O)[C@]3(O)CC 15.1%
CCOC(=O)c1cccc(NC(=O)CC2C(=O)N(c3ccc(Cl)cc3)C(=O)N2C2CCCC2)c1 (centres undefined) -2.72%
CCc1ccc(S(=O)(=O)c2nnn3c2nc(N2CCOCC2)c2sccc23)cc1 -5.26%
Cc1cc(-c2ccccc2)n2nc(-c3ccc(Cl)cc3)cc2n1 -3.2%
Cc1ccc(N2CC(c3nc(-c4ccc(Cl)cc4)no3)CC2=O)cc1F (centres undefined) -1.32%
Cc1sc2c(c1C)c(=O)n(-c1ccc(Cl)cc1)c(=O)n2Cc1cc(=O)n2cc(Br)ccc2n1 -14.9%
COc1ccc(NC(=O)CSc2oc(-c3ccc(F)cc3)nc2S(=O)(=O)c2ccc(C)cc2)c(OC)c1 -0.489%
CC(=O)c1cccc(NS(=O)(=O)c2cc(-c3onc(C)c3C)ccc2C)c1 -4.85%
CCc1cc2c(cc1N1CCC(N3CCOCC3)CC1)C(C)(C)c1[nH]c3cc(C#N)ccc3c1C2=O -3.4%
COc1ccc2cc3cc(C(=O)Nc4cc(C)c(Cl)cc4OC)oc3nc2c1 13.3%
CCc1cccc(CC)c1NC(=O)C1CCC(CNS(=O)(=O)c2cccc3nsnc23)CC1 (centres undefined) -14.1%
COc1cc(NC(=O)C2CCN(S(=O)(=O)c3ccc4c(c3)CCCC(=O)N4)CC2)cc(OC)c1 -9.17%
CCOc1ccccc1NC(=O)CSc1nc2c(sc3ccccc32)c(=O)n1CCCC(=O)NC1CCCC1 -13.5%
Cc1cccc(N2CCN(C(=O)c3cnn(-c4ccccc4Cl)c3C3CCN(C(=O)OC(C)(C)C)CC3)CC2C)c1 (centres undefined) -5.82%
Cc1cccc(OCc2nc(CC(=O)Nc3ccc(C)cc3C)cs2)c1 -12.6%
COc1cccc(CNC(=O)c2ccc(CNS(=O)(=O)c3ccc(C)cc3)cc2)c1 -9.68%
O=C(Nc1ccccc1C(F)(F)F)c1cc(-c2ccc3c(c2)OCCO3)on1 1.59%
CCN(CC)CCNC(=O)C(=O)NCC(c1cccnc1)N1CCN(c2ccc(F)cc2)CC1 (centres undefined) 7.23%
COc1ccc(-c2cc(C(=O)NC(C)c3ccccc3)c3cc(C(C)C)ccc3n2)cc1 (centres undefined) -6.02%

outcome, inactive:
CCOC(=O)N1CCc2c(sc3c2c(=O)n(Cc2ccccc2)c(=O)n3CC(=O)Nc2cccc(C)c2)C1
Cc1ccc(C)c(NC(=O)CCCn2c(C)c3cnn(-c4ccccc4)c(=O)c3c2C)c1
Cc1cc(C)c2c(n1)SCC(=O)N2CC(=O)Nc1ccccc1C
Cc1ccc(C2C(=O)N(C3CCCCCC3)CC(=O)N2C(C)C)cc1 (centres undefined)
COc1ccccc1N1CCN(S(=O)(=O)c2ccc(-c3ccno3)cc2OC)CC1
COc1cccc(-n2c(SCC(=O)Nc3cccc(C)c3)nc3c([nH]c4ccccc43)c2=O)c1
O=C(CSc1ccccc1)N1CCc2c([nH]c3ccccc23)C1c1ccc(Cl)cc1 (centres undefined)
Cc1cccc(S(=O)(=O)c2cn(C)c3cc(N4CCCCCC4)c(F)cc3c2=O)c1
Cc1ccc(C)c(NC(=O)C2CCN(c3ncnc4c3nc3n4CCCCC3)CC2)c1
O=C(CN1C(=O)C2(SCC(=O)N2c2ccccc2)c2ccccc21)Nc1ccccc1C(F)(F)F (centres undefined)
CCNC(=O)C1CCN(c2nc3ccccc3nc2C(F)(F)F)CC1
Cc1ccc(CN2C(=O)C(O)(CC(=O)c3ccc(C)cc3)c3ccccc32)cc1 (centres undefined)
Cc1ccc2oc(C(=O)Nc3ccc(S(=O)(=O)N(C)c4ccccc4)cc3)cc(=O)c2c1
Cc1ccc(CNC(=O)C2CCN(S(=O)(=O)c3cccc4nonc34)CC2)cc1
O=C(c1ccc2c(c1)N(Cc1ccccc1F)C(=O)c1ccccc1S2(=O)=O)N1CCc2ccccc21
CCc1ccccc1NC(=O)Cn1c(=O)n(CCCCCC(=O)NCc2ccc(C)cc2)c(=O)c2sccc21
Cc1ccc(S(=O)(=O)CCC(=O)Nc2ccc(OC(F)(F)F)cc2)cc1
Cc1cc(Br)ccc1NC(=O)C1CCCN(S(=O)(=O)c2cccc3nonc23)C1 (centres undefined)
Cc1cc(N2CCC(C(=O)Nc3ccc(F)cc3C)CC2)n2nc(C)c(-c3ccc(Cl)cc3)c2n1
COc1cc(Cl)c(NC(=O)c2cc(S(=O)(=O)N3CCCCC3)c[nH]2)c(OC)c1
CCOC(=O)c1c(S(=O)(=O)N2CCCC(C(=O)NCc3ccccc3Cl)C2)c(C)n(C)c1C (centres undefined)
O=C(Nc1ccccc1)N(Cc1c[nH]c2ccccc12)C1CCCCCC1
CCN(c1ccccc1)S(=O)(=O)c1nnc(NC(=O)c2ccccc2)s1
